Experimental data published in patent US11779649B2, “Antibodies to PMEL17 and conjugates thereof” (Novartis AG, priority 2018, dated 2023).

How the values were obtained:
92.1 uveal melanoma = test: Resazurin-based viability assay, 92.1 uveal melanoma cells; assay type: cell-based; conditions: 96 or 120 hours, Table 9
Procedure: (§1) Following drug treatment for 96 or 120 hours, cell viability and proliferation were determined using a resazurin-based viability assay. Briefly, cells were incubated with a resazurin-based solution and color change was detected by absorbance with a spectrophotometer and used as a readout of cell viability. Data presented as mean of 3 independent replicates and relative to PBS-treated cells (control).
as §1, with “(control) (FIG. 6).” for “(control).”
Following drug treatment for 96 or 120 hours, cell viability and proliferation were determined using a resazurin-based viability assay. Data presented as mean of 3 independent replicates and relative to PBS-treated cells (control) (FIG. 8).
as §1

MP41 = test: Resazurin-based viability assay, MP41 cells; assay type: cell-based; conditions: 96 or 120 hours, Table 9
Procedure: as §1

92.1 cells = test: Annexin V flow cytometry apoptosis assay, 92.1 cells; assay type: cell-based; conditions: FIG. 7
Procedure: (§2) 92.1 and MIAPACA cells were seeded in 96-well plates (5000 cells per well) and treated with increasing concentrations of Compound (A1), Compound (A2), and a fixed dose of Staurosporine (100 nM, positive control) as indicated. Following drug treatment for 96, cells were subjected to fluorescence-activated flow cytometry using an Annexin V antibody conjugated to a fluorescent dye. Data presented as mean of 3 independent replicates.
as §2, with “92.1” for “92.1 and MIAPACA”, “3207-(B1) (Isotype control), G4-(B1),” for “Compound (A2),”, “G1-(B1)” for “a fixed dose of Staurosporine (100 nM, positive control)”

GNAQ/11 = test: IP1 levels by TR-FRET in 92.1 uveal melanoma cells; assay type: cell-based; conditions: 92.1 cells, 2 days, FIG. 9
Procedure: 92.1 uveal melanoma were treated with increasing concentrations of Compound (A1) or Compound (A2) as indicated. Following drug treatment overnight, cells were processed for determination of IP1 levels using TR-FRET (time-resolved fluorescent resonance energy transfer) or protein levels by western-blotting.
92.1 uveal melanoma were treated with DMSO, Compound (A1) (8 nM) and increasing concentrations of Isotype-(B1), anti-PMEL17-(B1) and anti-PMEL17-(B2) ADCs as indicated. Following drug treatment for 2 days, cells were processed for determination of IP1 levels using TR-FRET (time-resolved fluorescent resonance energy transfer). IP1 levels (nM) are presented as mean of 3 independent replicates.

[1] = test system: 92.1-luciferase subcutaneous xenografts; test: 92.1-luciferase subcutaneous xenograft tumor growth in female nude mice; assay type: in vivo
Procedure: Treatment (single dose i.v. injection) was performed 17 days post tumor inoculation. Values are mean±SEM; sample size, (n=5-12 mice per group). Initial tumor volume at day 0 was approximately 200-250 mm^3.
Treatments (single dose i.v. injection) were performed 17 days post tumor inoculation. Values represent mean±SEM; sample size, (n=5-6 mice per group). Initial tumor volume at day 0 was approximately 300-325 mm^3. (FIG. 16).
Treatment (single dose i.v. injection) was performed 14-17 days post tumor inoculation. Values are mean±SEM; sample size, (n=5-12 mice per group). Initial tumor volume at day 0 was approximately 200-250 mm3.

[2] = Body weight change of female naive nude mice; assay type: in vivo; conditions: single dose i.v., 14 days, FIG. 12B
Procedure: Body weight change of female naive nude mice after treatment with G1-(B1) was monitored at the indicated doses. Treatments (single dose i.v. injection) were performed at day 0. Values are mean±SEM; sample size, (n=4 mice per group). Initial body weight at day 0 was approximately 24 g. Body weight was measured every day for 14 days following drug treatment.

[3] = test system: 92.1-luciferase subcutaneous xenografts; test: Immunohistochemical analysis of tumour tissue from 92.1-luciferase subcutaneous xenografts; assay type: in vivo, mice; conditions: 7.5 mg/kg, FIG. 12C
Procedure: Immunohistochemical analysis of tumour tissue from 92.1-luciferase subcutaneous xenografts treated with vehicle, 3207-(B1) (7.5 mg/kg body weight), or G1-(B1) (7.5 mg/kg body weight) was performed. Tumors were fixed in 10% (vol/vol) neutral buffered formalin for 24 h at room temperature, then rinsed in PBS, processed for dehydration, cleared, and embedded in paraffin. 3 μm sections were prepared and processed for hematoxylin and eosin (H&E) staining and for immunohistochemistry. Immunohistochemical staining was performed on formalin-fixed, paraffin-embedded tissue sections using a Bond-RX (Leica) fully automated system for anti-hIgG (ThermoFischer) and anti-gp100 (PMEL17) (clone EP4863; Abcam) staining, and a Discovery XT (Ventana Medical System) fully automated system for anti-Ki67 (clone Sp6; NeoMarkers), anti-pERK1/2 (clone D13.14.4E; Cell Signaling), anti-MITF (Sigma) and anti-cleaved Caspase-3 (Cell Signaling) staining.

[4] = test system: ADP-induced platelet aggregation; test: Whole blood platelet aggregation of naive mice after ADP activation; assay type: in vivo; conditions: ADP 6.5 uM
Procedure: Whole blood platelet aggregation of naive mice treated with vehicle, G1-(B1) (20 mg/kg body weight), or Compound (A1) (0.01, 0.03, 0.1, and 0.3 mg/kg body weight) was tested. Animals were euthanized 5 min post single i.v. dosing and blood was collected via vena cava. After 1 h, whole blood aggregation was measured following platelet activation with ADP at 6.5 uM (FIG. 12D).
Whole blood platelet aggregation of naive mice treated with vehicle and G1-(B1) (7.5 and 30 mg/kg body weight) at 24 h or 7 d post dosing was measured. Mice were euthanized 24 h or 7 d post single i.v. dosing and blood was collected via vena cava. After 1 h, whole blood aggregation was measured following platelet activation with ADP at 6.5 uM.

92.1-luciferase cells = test: Liver and lung metastasis mouse model of uveal melanoma (92.1-luciferase i.v., bioluminescence); assay type: in vivo, NOD-Scid mice
Procedure: Female NOD-Scid mice were intravenously injected with 92.1-luciferase cells (approximately 2 million cells per animal) and bioluminescence was measured twice a week to evaluate tumor formation. After 45 days all injected mice developed liver and lung metastases as detected by bioluminescence signal (BLI) (FIGS. 13A and 13B). Tumor bearing mice were treated with a single i.v. injection of G1-(B1) (20 mg/kg body weight) and bioluminescence was monitored over time as a readout of tumor progression. Individual pictures from each mice are presented at day 45 following i.v. injection of 92.1-luciferase cells (just before the initiation of treatment) and 12 days post treatment (FIGS. 13A and 13B); sample size, (n=6 mice per group). Initial BLI for liver metastasis at day 0 was approximately 2.8*10^9 p/sec/cm^2. Lung tumors (bioluminescence signal) in FIG. 13B are indicated by a black arrow.
Corresponding body weight modulation (% vs day 15) was assessed 2-3 times per week prior and post treatment with G1-(B1) 20 mg/kg (grey circles). Values are mean±SEM; sample size, (n=5-6 mice per group). Initial body weight at day 15 was approximately 21 g.

[5] = PK of G1-(B1) ADCs in nude mice; assay type: in vivo
Text: Clearance, volume of distribution and half-life are in the typical range for ADCs.

[6] = Free payload concentrations in tumor bearing mice; assay type: in vivo; conditions: targeted ADC vs isotype control 3207-(B1), FIG. 14B
Procedure: In tumor bearing mice, free payload concentrations were measured after dosing either target binding G1-(B1) or isotype control 3207-(B1). A clear (>4-fold) increase in tumor delivery of Compound (A1) payload could be observed using the targeted ADC (FIG. 14B). The conversion of Compound (A1) (open circles) into its ring-opened form of Compound (A1) having the structure of Compound (A4)

B1: G1-(B1) (conjugate)
heavy: QVQLVQSGAEVKKPGSSVKVSCKASGGTFSDYAITWVRQAPGQGLEWMGGIIPIFGTANYAQKFQGRVTITADESTSTAYMELSSLRSEDTAVYYCAREGGLLTDISYSRYWFAYWGQGTLVTVSSASTKGPSVFPLAPSSKSTSGGTAALGCLVKDYFPCPVTVSWNSGALTSGVHTFPAVLQSSGLYSLSSVVTVPSSSLGTQTYICNVNHKPSNTKVDKRV[in this place human IgG1 Fc with S375C (EU numbers)]
light: DIELTQPPSVSVSPGQTASITCSGDALRDKFVYWYQQKPGQAPVLVIYDDNNRPSGIPERFSGSNSGNTATLTISGTQAEDEADYYCQSWDHSYSLVVFGGGTKLTVLGQPKAAPSVTLFPPSSEELQANKATLVCLISDFYPGAVTVAWKADSSPVKAGVETTTPSKQSNNKYAASSYLSLTPEQWKSHRSYSCQVTHEGSTVEKTVAPTECS
GI50 (92.1 uveal melanoma): 0.722 nM | GI50 (MP41): 0.563 nM | apoptosis (Annexin V) (92.1 cells): induced apoptosis in 92.1 cells in a dose-dependent manner | GNAQ/11 inhibition (IP1 levels) (GNAQ/11): inhibit mutant GNAQ and GNA11 in a dose-dependent manner | antitumor activity ([1]; 7.5 mg/kg single dose i.v., FIG. 16): comparable antitumor activity | tumor growth ([1]; single i.v. injection, FIG. 12A): inhibited tumor growth in a dose-dependent manner | body weight [2]: No body weight loss was observed for up to 14 days after treatment | MITF and PMEL17 levels (IHC) [3]: No changes were observed in MITF and PMEL17 levels | pERK and Ki67 levels (IHC) [3]: reduced levels of pERK and Ki67 | cell apoptosis (cleaved Caspase-3 IHC) ([3]; compared to vehicle and 3207-(B1)): induced cell apoptosis | ADP-induced platelet aggregation in vivo ([4]; 20 mg/kg, 5 min post single i.v. dosing, FIG. 12D): did not have any significant effect on ADP-induced platelet aggregation in vivo | platelet aggregation inhibition ([4]; 7.5 and 30 mg/kg, 24 h or 7 d post dosing, FIG. 12E): No platelet aggregation inhibition was observed | body weight (92.1-luciferase cells; 20 mg/kg, FIG. 13C): body weight restoration | liver and lung metastases (bioluminescence) (92.1-luciferase cells; single i.v. dose of 20 mg/kg, 12 days post treatment): induced regression of liver and lung metastases | AUC extrap (%) ([5]; 7.5 mg/kg): 25 ± 9% | CL ([5]; 7.5 mg/kg): 22 ± 7.2 mL/day/kg | Vz ([5]; 7.5 mg/kg): 0.21 ± 0.01 L/kg | app. telim ([5]; 7.5 mg/kg): 176 ± 37 h | AUClast (ug/mL*h) dose normaliz. ([5]; 7.5 mg/kg, dose normalised): 904 µg·h/mL | AUC extrap (%) ([5]; 30 mg/kg): 38 ± 3% | CL ([5]; 30 mg/kg): 9.6 ± 1.2 mL/day/kg | Vz ([5]; 30 mg/kg): 0.15 ± 0.01 L/kg | app. telim ([5]; 30 mg/kg): 259 ± 25 h | exposure with dose ([5]; total IgG levels, FIG. 14A): slightly over-proportional increase of exposure with dose between 7.5 and 30 mg/kg | increase in tumor delivery of Compound (A1) payload [6]: > 4 fold
